Measured values as given in PMC7246803.
Results are given in words; binding and its absence hold for the method and conditions named. For some assays here: In cells and extracts the contact can be indirect. Some entries that bind do so weakly or less than the wild type. Sequences can lack the tags named with a protein. One block for each binder: values may come before it.

How the values were obtained:
[1] = biological target: T1, BTB-A2.1-cYFP (Arabidopsis thaliana) (UniProt Q9FN67); assay: split reporter; BiFC with cYFP and nYFP fusions in Nicotiana benthamiana leaves infiltrated with A. tumefaciens GV3101; confocal microscopy 48-72 h after infiltration
T1 sequence: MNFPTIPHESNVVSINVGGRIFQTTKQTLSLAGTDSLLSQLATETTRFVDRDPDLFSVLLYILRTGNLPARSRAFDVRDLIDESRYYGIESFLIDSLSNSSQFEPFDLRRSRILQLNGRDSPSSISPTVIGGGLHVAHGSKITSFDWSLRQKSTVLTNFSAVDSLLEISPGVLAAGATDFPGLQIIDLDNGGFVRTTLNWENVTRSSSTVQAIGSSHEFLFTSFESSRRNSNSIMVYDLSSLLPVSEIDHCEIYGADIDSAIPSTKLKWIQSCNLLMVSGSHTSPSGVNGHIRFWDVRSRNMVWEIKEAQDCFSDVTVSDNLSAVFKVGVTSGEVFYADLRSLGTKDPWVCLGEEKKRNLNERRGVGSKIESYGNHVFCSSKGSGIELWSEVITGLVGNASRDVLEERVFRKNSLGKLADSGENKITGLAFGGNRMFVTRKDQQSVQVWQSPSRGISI

[2] = biological target: T2, BTB-A2.3-cYFP (Arabidopsis thaliana) (UniProt Q9ZUH1); assay: as above
T2 sequence: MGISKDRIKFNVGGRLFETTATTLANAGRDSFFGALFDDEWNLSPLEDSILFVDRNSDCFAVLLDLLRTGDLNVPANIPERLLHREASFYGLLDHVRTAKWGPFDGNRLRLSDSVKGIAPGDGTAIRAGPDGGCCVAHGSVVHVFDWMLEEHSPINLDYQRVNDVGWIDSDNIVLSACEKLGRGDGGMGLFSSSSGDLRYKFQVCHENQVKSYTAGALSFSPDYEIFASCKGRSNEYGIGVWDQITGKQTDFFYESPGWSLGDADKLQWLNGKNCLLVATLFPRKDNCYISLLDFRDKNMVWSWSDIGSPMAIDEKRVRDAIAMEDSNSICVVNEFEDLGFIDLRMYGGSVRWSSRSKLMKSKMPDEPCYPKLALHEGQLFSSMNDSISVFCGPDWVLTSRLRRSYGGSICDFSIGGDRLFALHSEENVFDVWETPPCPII

[3] = biological target: T3, BTB-A2.1 (AT5G41330), yeast two-hybrid fusion (Arabidopsis thaliana) (UniProt Q9FN67); assay: two-hybrid; AD (pGADT7) and BD (pGBKT7) fusions co-transformed into yeast strain AH109; growth on SD-WL or SD-WLHA at dilutions 10^-1, 10^-2, 10^-3, 30 °C, 3-5 days
T3 sequence: T1 sequence

[4] = biological target: T4, BTB-A2.3 (AT2G24240), yeast two-hybrid fusion (Arabidopsis thaliana) (UniProt Q9ZUH1); assay: as above
T4 sequence: T2 sequence

B1: SnRK2.3-nYFP (enzyme, UniProt Q39193 1-361)
chain: MDRAPVTTGPLDMPIMHDSDRYDFVKDIGSGNFGVARLMRDKLTKELVAVKYIERGDKIDENVQREIINHRSLRHPNIVRFKEVILTPTHLAIIMEYASGGELYERICNAGRFSEDEARFFFQQLLSGVSYCHSMQICHRDLKLENTLLDGSPAPRLKICDFGYSKSSVLHSQPKSTVGTPAYIAPEVLLRQEYDGKIADVWSCGVTLYVMLVGAYPFEDPEEPRDYRKTIQRILSVKYSIPDDIRISPECCHLISRIFVADPATRISIPEIKTHSWFLKNLPADLMNESNTGSQFQEPEQPMQSLDTIMQIISEATIPAVRNRCLDDFMTDNLDLDDDMDDFDSESEIDIDSSGEIVYAL
binding [1]: binds | binding [2]: binds

B2: SnRK2.3, yeast two-hybrid fusion (enzyme, UniProt Q39193 1-361)
chain: B1 chain
binding [3]: binds | binding [4]: binds

Now from value to binder:

binding [3]: no binding | binding [4]: no binding
B3: SnRK2.2, yeast two-hybrid fusion (enzyme, UniProt Q39192 1-362)
chain: MDPATNSPIMPIDLPIMHDSDRYDFVKDIGSGNFGVARLMTDRVTKELVAVKYIERGEKIDENVQREIINHRSLRHPNIVRFKEVILTPSHLAIVMEYAAGGELYERICNAGRFSEDEARFFFQQLISGVSYCHAMQICHRDLKLENTLLDGSPAPRLKICDFGYSKSSVLHSQPKSTVGTPAYIAPEILLRQEYDGKLADVWSCGVTLYVMLVGAYPFEDPQEPRDYRKTIQRILSVTYSIPEDLHLSPECRHLISRIFVADPATRITIPEITSDKWFLKNLPGDLMDENRMGSQFQEPEQPMQSLDTIMQIISEATIPTVRNRCLDDFMADNLDLDDDMDDFDSESEIDVDSSGEIVYAL

binding [3]: binds | binding [4]: binds
B4: BTB-A2.3 (AT2G24240), yeast two-hybrid fusion (protein, UniProt Q9ZUH1 1-441)
chain: T2 sequence
